Measurements: PubChem BioAssay AID588591 (National Center for Advancing Translational Sciences (NCATS), 2011)
In all, about 390,000 compounds went through this assay and about 4,700 (1.2%) were called active. The inconclusive results got no clear call from the source; some entries with a clear call stand among them for comparison. The call rests on the fitted dose curve; in most records, active means well fitted inhibition curve with a large enough effect; inconclusive means small, poorly fitted or top-dose-only effect, or another doubt; inactive means no such curve, though single readings can be large or run the other way. Where the call is inconclusive, the potency comes from a doubtful curve fit.

These molecules were tested against DNA polymerase eta (Homo sapiens) (UniProt Q9Y253) (assay: qHTS for Inhibitors of Polymerase Eta). Conditions: recombinant Pol eta, fluorescent DNA replication assay; series mostly up to 114 µM.
Outline: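 Fluorescent replication assay: 50 nM final substrate added after a 15 min room-temperature compound preincubation with 10 nM enzyme. Signal taken at 0 min and again at 10 min.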
Potency means the concentration at half of the fitted maximal effect; tags describe the fitted curve by direction and shape.

UniProt Q9Y253, sequence (Q9Y253 whole entry, looked up): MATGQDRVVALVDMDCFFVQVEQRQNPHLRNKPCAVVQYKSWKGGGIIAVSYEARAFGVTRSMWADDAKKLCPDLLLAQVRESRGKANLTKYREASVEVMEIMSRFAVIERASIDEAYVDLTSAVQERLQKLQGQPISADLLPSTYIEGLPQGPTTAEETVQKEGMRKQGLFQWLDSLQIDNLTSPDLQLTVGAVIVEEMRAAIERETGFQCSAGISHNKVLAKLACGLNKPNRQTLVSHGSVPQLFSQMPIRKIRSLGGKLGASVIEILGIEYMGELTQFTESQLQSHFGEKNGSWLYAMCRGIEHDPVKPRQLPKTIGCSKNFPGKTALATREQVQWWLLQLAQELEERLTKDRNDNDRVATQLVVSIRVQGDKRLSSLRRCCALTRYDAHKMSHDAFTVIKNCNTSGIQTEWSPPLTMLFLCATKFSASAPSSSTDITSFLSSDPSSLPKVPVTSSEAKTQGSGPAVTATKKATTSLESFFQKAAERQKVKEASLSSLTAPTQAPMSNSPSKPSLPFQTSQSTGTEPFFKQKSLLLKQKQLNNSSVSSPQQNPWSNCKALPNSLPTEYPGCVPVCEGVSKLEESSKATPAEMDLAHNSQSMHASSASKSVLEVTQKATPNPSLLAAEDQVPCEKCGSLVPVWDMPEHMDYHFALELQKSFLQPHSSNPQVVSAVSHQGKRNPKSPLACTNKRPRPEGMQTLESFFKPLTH

SMILES	Potency
COc1cc(/C=C/c2ccc3cccc([N+](=O)[O-])c3n2)ccc1OCC(=O)O	active: 20 µM
O=C(Cc1cccs1)Nc1ccc(-c2nnc(-c3ccccc3)o2)cc1	inconclusive: 3.16 µM [inhibitor, full curve, poor fit]
O=C(CSc1nnc2ccccn12)Nc1cccc(-c2nc3ccccc3s2)c1	inconclusive: 12.6 µM [inhibitor, partial curve]
CC(=O)NC1CC2CCCC(C1)N2C(=O)Nc1cccc(C)c1 (stereo not drawn)	inconclusive: 89.1 µM [inhibitor, single point]
CCOc1cc(N2CCOCC2)c(OCC)cc1NC(=O)c1nc2nc(C)cc(C)n2n1	inconclusive: 44.7 µM [inhibitor, partial curve, poor fit]
Cc1ccc2c(=O)c(C(=O)c3ccc(F)cc3)cn(CC(=O)NCc3ccco3)c2n1	inconclusive: 50.1 µM [inhibitor, partial curve]
O=C(O)c1ccc(-c2ccco2)n1Cc1ccccc1	inconclusive: 20 µM [inhibitor, full curve, poor fit]
Cc1ccc(-n2c(O)c(C=Nc3ccccc3-c3n[nH]c(=S)[nH]c3=O)c3ccccc3c2=O)cc1C	active: 31.6 µM
Cc1ccc(S(=O)(=O)c2nc(S(=O)(=O)CCO)sc2N2CCOCC2)cc1	inconclusive: 79.4 µM [inhibitor, partial curve, poor fit]
C=C1C(=O)OCC2C(C(=O)O)=CC3C(C)C(C)=CC123 (stereo not drawn)	inconclusive: 39.8 µM [inhibitor, partial curve, poor fit]
Cc1cc(=O)oc2cc(OCC(=O)N/N=C/c3cc([N+](=O)[O-])ccc3O)ccc12	inconclusive: 4.47 µM [inhibitor, full curve, poor fit]
CC(C)c1noc(-c2ccccc2OCC(=O)Nc2ccc([N+](=O)[O-])cc2)n1	inactive
CCCOc1ccc(N2C(=O)CC(NCc3ccc(S(N)(=O)=O)cc3)C2=O)cc1 (stereo not drawn)	inconclusive: 89.1 µM [inhibitor, partial curve, poor fit]
CCOC(=O)c1sc(NC(=O)C2CC=CCC2C(=O)O)nc1C (stereo not drawn)	active: 79.4 µM
Cc1ccc(OCC(=O)Nc2nnc(S(=O)(=O)N3CCc4ccccc43)s2)cc1	inconclusive: 100 µM [inhibitor, partial curve, poor fit]
Cc1ccc(S(=O)(=O)NCc2ccc(C(=O)NCCc3ccc(S(N)(=O)=O)cc3)cc2)cc1	inconclusive: 79.4 µM [inhibitor, partial curve, poor fit]
Cc1ccc(-n2ncc3c(Nc4ccc(Oc5ccccc5)cc4)ncnc32)c(C)c1	inactive
Cc1cc(C)cc(NC(=O)CSCc2nc3c(nnn3Cc3ccc(F)cc3)c(=O)[nH]2)c1	inconclusive: 89.1 µM [inhibitor, single point]
O=C(CCn1c(=S)[nH]c2cc3c(cc2c1=O)OCO3)NCc1cccc(Cl)c1	inactive
COc1ccc(Cl)cc1NC(=O)CSc1nc(=O)n(Cc2ccco2)c2c1CCC2	inactive
Cc1onc(-c2c(F)cccc2Cl)c1-c1nnc(-c2ccc(C(F)(F)F)cc2)o1	inconclusive: 79.4 µM [inhibitor, partial curve, poor fit]

SMILES	Potency
O=C(Nc1ncccc1O)c1c(O)c2ccccc2[nH]c1=O	inconclusive: 79.4 µM [inhibitor, partial curve]
O=C(O)CSc1ncnc2sc3c(c12)CCC3	inconclusive: 28.2 µM [inhibitor, partial curve, poor fit]
Cc1[nH]c2ccccc2c1/C=N/NC(=O)c1cccc(Br)c1	inconclusive: 44.7 µM [inhibitor, partial curve, poor fit]
COc1ccc(CCNC(=O)CCCCn2c(=O)c3ccccc3n(Cc3cc(C)ccc3C)c2=O)cc1OC	inactive
COc1ccc(-n2nc(C(=O)NCC(=O)Nc3cccc(NC(C)=O)c3)c3ccccc3c2=O)cc1	inconclusive: 14.1 µM [inhibitor, partial curve, poor fit]
CCOC(CNc1ncnc2sc(-c3ccccc3)cc12)OCC	inactive
CCN(C(=O)c1cccnc1SC)C12CC3CC(CC(C3)C1)C2	inconclusive: 89.1 µM [inhibitor, partial curve, poor fit]
Cc1ccc2c(C(=O)CN3CCN(c4ccccc4)CC3)c(C)[nH]c2c1	inconclusive: 25.1 µM [inhibitor, partial curve, poor fit]
Cc1ccc(OCCCC(=O)Nc2ccc(S(=O)(=O)Nc3cc(C)on3)cc2)cc1	inconclusive: 100 µM [inhibitor, partial curve, poor fit]
Cc1ccc(-c2nnn(CC(=O)Nc3ccc(S(=O)(=O)N4CCC(C)CC4)cc3)n2)cc1	inconclusive: 17.8 µM [inhibitor, partial curve, poor fit]
C=CCc1ccccc1OCCSc1nc(-c2ccc(C(C)(C)C)cc2)nc2cc(=O)[nH]n12	inconclusive: 56.2 µM [inhibitor, partial curve, poor fit]
O=C1CCCC(=O)C1=C1SCCCS1	inconclusive: 31.6 µM [inhibitor, partial curve, poor fit]
O=C(NCc1ccco1)c1cc2nc(-c3ccc4c(c3)OCO4)cc(C(F)(F)F)n2n1	inactive
CCc1ccc2[nH]c(=O)c(CN(Cc3ccc4c(c3)OCO4)C(=O)c3ccco3)cc2c1	inconclusive: 39.8 µM [inhibitor, partial curve, poor fit]
O=C1c2ccccc2C(=O)C12OC2c1ccc(Cl)cc1Cl (stereo not drawn)	inconclusive: 15.8 µM [inhibitor, full curve]
C=C(C)C(=O)Nc1cccc(C2=NOC3(C2)C[C@@H](C(N)=O)N(C(=O)c2ccc(OC)cc2)C3)c1 (stereo partly drawn)	active: 2.82 µM
CC(OC(=O)c1cccc(-n2cnnn2)c1)C(=O)Nc1cccc(Cl)c1 (stereo not drawn)	inactive
COc1cc2cc(CN(Cc3nnnn3Cc3ccco3)C3CCCCC3)c(=O)[nH]c2cc1OC	inconclusive: 50.1 µM [inhibitor, partial curve]
Cc1cc(C)cc(-n2c(SCC(=O)N3CCCCC3)nc3c([nH]c4ccccc43)c2=O)c1	inactive
COc1ccc(NS(=O)(=O)c2c(F)cccc2F)cc1S(=O)(=O)N1CCOCC1	inconclusive: 20 µM [inhibitor, single point]
COc1cc2ccccc2cc1C(=O)Nc1ccc2oc(-c3ccc(F)cc3)nc2c1	inconclusive: 89.1 µM [inhibitor, single point]

SMILES	Potency
Cc1c(Cl)ccc2sc(NC(=O)c3ccc(S(=O)(=O)N4CCCc5ccccc54)cc3)nc12	inactive
COc1cc(C(=O)O)cc(OC)c1OCc1cc(C(=O)O)oc1C	active: 3.16 µM
O=C(CSc1nc2ccccc2c(=O)[nH]1)c1ccc(O)c(O)c1	active: 2.51 µM
CCOc1cc(-c2nc3ccccc3s2)ccc1O	inconclusive: 100 µM [inhibitor, partial curve, poor fit]
CC(=O)N(C(C)=O)N1C(=O)/C(=C/c2ccc(Cl)cc2)SC1=S	active: 28.2 µM
c1ccc(-c2nc(-c3ccco3)n3ccccc23)cc1	inconclusive: 44.7 µM [inhibitor, partial curve, poor fit]
CCOC(=O)c1c2ccccc2[n+]([O-])n1CCO	inactive
Cc1cc(-c2n[nH]c(=S)n2/N=C/C(Br)=C/c2ccccc2)n[nH]1	active: 14.1 µM
O=C(O)c1cc2cc(Cl)cc(Cl)c2oc1=O	inconclusive: 25.1 µM [inhibitor, full curve, poor fit]
O=C(CSc1nnnn1-c1ccccc1)Nc1nsc(-c2ccc(Cl)cc2)n1	inconclusive: 15.8 µM [inhibitor, partial curve]
O=C(N/N=C/c1ccccc1C(=O)O)c1cc(-c2ccc3c4c(cccc24)CC3)n[nH]1	inconclusive: 56.2 µM [inhibitor, partial curve, poor fit]
O=C1c2ccccc2C(=O)C1(c1ccccc1)N1CCN(c2cccc(Cl)c2)CC1	inconclusive: 100 µM [inhibitor, partial curve, poor fit]
Cc1ccc(OCCOc2ccc(Cl)cc2Cl)c([N+](=O)[O-])n1	inconclusive: 44.7 µM [inhibitor, partial curve, poor fit]
O=C(COC(=O)Cc1ccc(S(=O)(=O)N2CCOCC2)s1)NCc1ccc(Cl)cc1	inconclusive: 14.1 µM [inhibitor, partial curve, poor fit]
Cc1ccc(N=C2NC(=O)/C(=C/c3cn(C)c4ccccc34)S2)cc1C	inconclusive: 15.8 µM [inhibitor, full curve, poor fit]
COC(=O)c1ccc2nc(C(F)(F)F)[nH]c2c1	inconclusive: 35.5 µM [inhibitor, single point]
COc1ccc(-c2cc(C(=O)N3CCN(c4ncccn4)CC3)c3ccccc3n2)cc1	inactive
CCOC(=O)c1cc(-c2ccccc2)sc1NC(=O)CSc1nnc(N)s1	inconclusive: 79.4 µM [inhibitor, partial curve, poor fit]
Cc1ccc(N(CC(O)COCc2ccco2)S(=O)(=O)c2ccc(C)cc2)cc1 (stereo not drawn)	active: 50.1 µM
CCOC(=O)C1CCCN(C(=O)c2cc3ncc(Br)cn3n2)C1 (stereo not drawn)	inconclusive: 31.6 µM [inhibitor, partial curve]
CC1Cc2ccccc2N1CC(=O)Nc1cc(S(=O)(=O)N2CCOCC2)ccc1Cl (stereo not drawn)	inconclusive: 89.1 µM [inhibitor, partial curve, poor fit]
